Test results taken from PubChem BioAssay AID686978 (National Center for Advancing Translational Sciences (NCATS), 2013).
“And” between values parts separate entries of the source, which are not always exact repeats. Equal entries are not always repeated. Hit rate of the full screen: of about 420,000 compounds, about 64,000 (15%) were called active. Inconclusive means that the source gave no clear call. Such entries were picked first, then a sample of the others. Calls come from the whole dose curve; as a rule, active = well fitted inhibition curve with a large enough effect; inconclusive = small, poorly fitted or top-dose-only effect; inactive = flat fitted curve, though single readings scatter. No potency is given beside an inconclusive call; the fits are too rough.

Test: qHTS for Inhibitors of human tyrosyl-DNA phosphodiesterase 1 (TDP1): qHTS in cells in absence of CPT; note: nearly all actives have a fitted effect of over 55% in size
Conditions: DT40 Tdp1-/- hTDP1 cells, no CPT, ATP luminescence, 48 h; activity change, negative = growth inhibition: at 46.2 µM (top of the series) unless noted
Summary of the method: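 Compound effects on proliferation are scored in DT40 Tdp1-/-;hTDP1 cells in the absence of CPT. ATP levels (CellTiter-Glo luminescence) are recorded after a ≥48 hr, 37 °C incubation.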
% is set by controls: 0 for no effect and ±100 for the full control effect; potency is the fitted concentration of half-maximal effect; tags give direction and shape of the fitted curve.

| Compound | Potency | activity change, negative = growth inhibition |
| --- | --- | --- |
| O=C(COC(=O)c1ccccc1Nc1ccccc1)NCc1ccccc1 | inconclusive [inhibitor, full curve, poor fit] |  |
| S=C(N/N=C/c1cccs1)NC1CC2CCC1C2 (stereo unspecified) | inconclusive [inhibitor, single point] |  |
| CC(=O)Nc1cccc(-c2ccnc3c2CC(C(=O)NCc2ccncc2)O3)c1 (stereo unspecified) | inactive |  |
| CC(=O)Nc1ccc(S(=O)(=O)Nc2c(C)nn(-c3ccccc3)c2C)cc1 | inconclusive [inhibitor, single point] |  |
| OC(COCc1cccs1)CN1CCN(c2cccc(C(F)(F)F)c2)CC1 (stereo unspecified) | active: 20.6 µM |  |
| N#Cc1nc(-c2ccco2)oc1NCc1ccccc1Cl |  | inconclusive: -31.4% [inhibitor] |
| Cc1ccc(-c2ccccc2)n1-c1ccc(C(=O)O)cc1 | inactive |  |
| O=C(COc1ccc([N+](=O)[O-])cc1Cl)NCCN1C(=O)CSC1=O | inactive |  |
| Cc1ccc(C)c(Nc2cc(C(=O)NC3CCCC3)c3ccccc3n2)c1 | inconclusive [inhibitor, partial curve] |  |
| COc1ccccc1C(=O)N(Cc1cc2cccc(C)c2nc1N1CCC(O)CC1)C1CC1 | active: 16.4 µM |  |
| CCOC(=O)CSC(C)C(=O)Nc1nnc(C(C)C)s1 (stereo unspecified) | inactive |  |
| CCC(=O)NC1Cc2ccccc2C(c2ccccc2)C1 (stereo unspecified) | inconclusive [inhibitor, single point] |  |
| CCOC(=O)C1CCCN(C(=O)c2sc3nc(-c4ccccc4)cn3c2C)C1 (stereo unspecified) | inconclusive [inhibitor, single point] |  |
| COc1ccc(NC(=O)CC2C(=O)N(c3ccc(OC)cc3)C(=O)N2CCC2=CCCCC2)cc1 (stereo unspecified) | inconclusive [inhibitor, full curve, poor fit] |  |
| O=c1c2cc(Cl)ccc2[nH]c(=S)n1Cc1cccs1 | inconclusive [inhibitor, single point] |  |
| Cc1ccc(CNC(=O)c2cc3c(=O)n(Cc4ccco4)ccc3nc2C)cc1 | inconclusive [inhibitor, single point] |  |
| COc1cc(-c2noc(-c3ccc(NCC4CCCO4)c([N+](=O)[O-])c3)n2)cc(OC)c1OC (stereo unspecified) | active: 3.66 µM |  |
| COc1ccc(-c2csc(NC(=O)CS(=O)(=O)c3ccccc3)n2)cc1OC | active: 16.4 µM |  |
| COCCCn1cn[nH]c1=S | active: 14.6 µM |  |
| COc1ccc(CN2C(=O)CNC2=S)cc1 | inactive |  |
| CCCCCCCCCCCCCCCC[n+]1cccc(C(=O)N(CC)CC)c1 | active: 2.31 µM and active: 2.59 µM |  |
